Measured values: PubChem BioAssay AID1508624 (National Center for Advancing Translational Sciences (NCATS), 2021)
About 120 (0.25%) of roughly 48,000 compounds were called active. Roughly 4% stayed inconclusive and do not appear here. Calls come from the whole dose curve; as a rule, active = well fitted activation curve with a large enough effect; inconclusive = small, poorly fitted or top-dose-only effect, or another doubt; inactive = no such curve, though single readings can be large or run the other way. This is one part of the list.

assay: Primary qHTS for Identification of Small Molecule Activators of Huntingtin-Antisense Promoter Activity; settings: HEK293 HTT-AS promoter firefly luciferase reporter, 24 h; series mostly up to 57.5 µM; activity change, positive = activation: at the top concentration; note: nearly all actives have a fitted effect of over 55% in size
In short: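 HEK293 cells carrying firefly luciferase reporters were seeded at 2,500 per well in Opti-MEM and cultured for 24 h. They were then treated with compounds at up to 57.5 uM final for 24 h at 37 degrees C before Dual-Glo luminescence readout.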

Activity change, positive = activation, inactive:
CCOc1ccc2nc(NC(=O)c3cc(=O)c4cc(C)cc(C)c4o3)sc2c1 19.4%, COc1ccc(N(Cc2cccs2)C(=O)COc2cc(C)c(Cl)c(C)c2)cc1 -34.1%, Cc1cccc(NC(=O)Cc2ccc(-n3c(C)nc4cccnc43)cc2)c1C -27.7%, O=c1c2cnn(-c3ccc(F)cc3)c2ncn1Cc1ccc(F)cc1 -19.7%, COc1ccc(Cl)cc1NC(=O)Cn1cc2c(n1)CCC(C)C2 (stereo not given) -13.1%, Cc1cc(-c2ccc(S(=O)(=O)Nc3ccc(Br)c(C)c3)s2)on1 -35.1%, CSc1nnc2[nH]c(=O)cc(C)n12 -0.949%, COc1ccc(CNC(=O)C2Cc3cc(S(=O)(=O)N4CCCCCC4)ccc3N2C(C)=O)cc1 (stereo not given) -2.01%, CC(=O)c1ccc(N2CCN(C(=O)c3ccc(Cn4c(=O)[nH]c5ccccc5c4=O)cc3)CC2)cc1 -24%, CC(C)c1ccc(NC(=O)C2(C)Cc3ccccc3C(=O)O2)cc1 (stereo not given) 26%, CN1c2cc(O)c(N=NC(N)=O)cc2CC1S(=O)(=O)O (stereo not given) -15.9%, Cc1ccc2c(c1)-c1c(cnn1CC(=O)N1CCN(c3cc(Cl)ccc3C)CC1)CO2 -9.54%, CC(C)C(NS(=O)(=O)c1cccc2cccnc12)C(=O)Nc1ccc(OC(F)(F)F)cc1 (stereo not given) -17.3%, O=C(c1ccccc1)c1ccc2nc(Nc3cc(Cl)ccc3O)c3nncn3c2c1 -19.1%, Cc1cc(C)c(NC(=O)CCC(=O)N2Cc3ccccc3Oc3ncccc32)c(C)c1 -19.5%, COC(=O)c1ccccc1NC(=O)Cn1c(=O)n(CCCC(=O)NCCc2ccc(OC)c(OC)c2)c(=O)c2ccccc21 -18.5%, Cc1ccc(C)c(NC(=O)NCc2ccc3c(c2)CCN3C(=O)c2ccccc2)c1 -27.1%, COc1ccc(Nc2cc(C)c3cc(NC(=O)c4cc(OC)cc(OC)c4)ccc3n2)cc1 -45.4%, CCCOc1ccc(C2c3c(oc4ccccc4c3=O)C(=O)N2c2nc(C)c(C(=O)OCC)s2)cc1 (stereo not given) 5.77% [at 11.5 µM, percent change from vehicle, -100% = no light], COc1ccc(S(=O)(=O)NCc2ccc(C(=O)NCc3ccccc3)cc2)cc1 -11.1%, CC(C)(N)c1ccc(-c2nc3ccccc3nc2-c2ccccc2)cc1 -17.9%, COc1cc2ncn(-c3cc(OCc4ccccc4C(F)(F)F)c(C(N)=O)s3)c2cc1OC 22.9%, O=C(NCC(c1ccccc1)c1ccccc1)c1nn(-c2ccccc2Cl)nc1CO -44.3%, CCOc1ccccc1NC(=O)c1sc(-n2nc(C)c(CCC(C)C)c2C)nc1C -12.7%, Cc1ccc(Cl)cc1N1CCN(C(=O)c2ccc3c(c2)N(Cc2ccccc2F)C(=O)c2ccccc2S3(=O)=O)CC1 -12.7%, Cc1nc2c(C(=O)N(C)Cc3ccccc3)c[nH]n2c(=O)c1Cc1ccc(Cl)cc1 -44.5%, CCCCOc1ccc(S(=O)(=O)N2CCN(c3ccccc3OCC)CC2)cc1 -3.65%, COc1ccc(Cl)cc1NC(=O)CN(C)S(=O)(=O)c1ccc(Br)s1 -30%, CCC1CCCCN1CCCNC(=O)CN1C(=O)CSc2ccc(S(=O)(=O)N3CCC(C)CC3)cc21 (stereo not given) -9.63%, Cc1cc(C)c2oc(-c3cccc(NC(=O)c4ccco4)c3)nc2c1 -9.62%, COCCCNC(=O)CCC(=O)N1Cc2ccccc2Oc2ncccc21 -3.76%, Cc1cc2c(c3oc(=O)c4ccccc4c13)CN(Cc1ccc(F)cc1)CO2 -16.9%, O=C(Nc1cccc(Cl)c1)Nc1ccccc1OCc1cc(=O)n2ccccc2n1 8.72%, C#CCN[C@@H]1CCc2ccccc21, O=S(=O)(c1ccc2[nH]c3c(c2c1)CCCCC3)N1CCN(c2ccccc2)CC1 -29.9%, CCOc1ccc(NS(=O)(=O)c2ccc(N)cc2)nn1 -3.39%, Cc1ccc(N2CCN(C(=O)CCc3c(C)nc4c(c3C)c(=O)n(C)c(=O)n4C)CC2)c(C)c1 -19.6%, O=C(CCn1cnc2ccccc2c1=O)NCc1ccccc1 -9.32%, CC(=O)C1=C(c2ccc(Cl)c(Cl)c2)N(C(C)=O)n2c(C)nnc2S1 -20.8%, Cc1cccc(C)c1NC(=O)c1oc2c(c1C)-c1nn(Cc3ccccc3)cc1CC2 -50.3%, CCCSCCCNC(=O)CN1C(=O)COc2ccc(S(=O)(=O)N3CCC(C)CC3)cc21 -20.6%, CN1C(=O)Cc2cc(S(=O)(=O)CCC(=O)Nc3ccccc3)ccc21 -13.8%, CCN(CC)CCCNC(=O)Cn1nc(N2CCN(c3ccccc3OC)CC2)ccc1=O -12.6%, COc1cc(OC)c(N(C)C(=O)c2nn(C)c3c2CSc2ccccc2-3)cc1Cl 6.32%, CCOC(=O)c1c(C)[nH]c(C)c1S(=O)(=O)N1CCCC(C(=O)Nc2ccc(OC)c(Cl)c2)C1 (stereo not given) -5.33%, COc1cc(OC2CCN(C)CC2)ccc1Nc1ncc2c(n1)n(C1CCCC1)c(=O)n2C -24.6%, O=C(Cn1ncc2c3ccccc3n(Cc3ccccc3F)c2c1=O)NCCc1ccc(Cl)cc1 -2.89%, COc1cccc(CNC(=O)CSc2c3c(nc4ccc(Cl)cc24)CCCC3)c1OC -31.1%, CC1=C(C(=O)Nc2ccc(C)cc2C)C(c2ccc(Cl)cc2)n2nc(C(=O)OC(C)C)nc2N1 (stereo not given) -22.2%, O=C(Cn1cnc(S(=O)(=O)N2CCCC2)c1)Nc1ccc(OC(F)(F)F)cc1 -11%, Cc1ccccc1Nc1nnc(-c2ccc(C)c(S(=O)(=O)N3CCOCC3)c2)c2ccccc12 3.05%, CN1CCN(c2ncc(-c3cc(Cl)cc(Cl)c3Cl)c(N)n2)CC1 -29.6%, COc1ccc(CN2COc3ccc4c(-c5ccccc5)cc(=O)oc4c3C2)cc1 -9.56%, Cc1cccc(N2CCN(C(=O)C3CCN(S(=O)(=O)c4cccs4)CC3)CC2)c1C -18.7%, COc1ccc(OC)c(NC(=O)Cn2cnc3c(oc4ccccc43)c2=O)c1 18.2%, C1COC(NC(C2CC2)C2CC2)=N1, CN(C)c1ccc(CNC(=O)CN(C)S(=O)(=O)c2ccc3c(c2)c(=O)n(C)c(=O)n3C)cc1 -11%, Cc1ccc(CNC(=O)Cn2ccn(-c3ccc(C)c(C)c3)c(=O)c2=O)cc1 18.5%, Cc1ccc(CNC(=O)CN(c2ccc(Cl)cc2Cl)S(=O)(=O)c2ccccc2)cc1 -25.2%, COc1cccc(C(=O)Nc2c(C(=O)NC(C)(C)C)oc3ccccc23)c1 -3.15%, CCc1cccc2sc(N3CCN(C(=O)c4cc5ccccc5cc4OC)CC3)nc12 -29.2%, Cc1ccc(CCNC(=O)Cn2c(-c3cccs3)cc3cc(F)ccc32)cc1 -12.3%, CCc1cccc(NC(=O)Cn2c(=O)n(CCc3ccc(OC)c(OC)c3)c(=O)c3ccccc32)c1 -18.5%, COc1ccc(CC(=O)NCc2ccc3c(c2)CCN3C(=O)c2ccc(C)cc2)cc1OC -33.2%, O=C(Cn1ncc2c(=O)oc3ccccc3c21)NCc1ccccc1Cl -3.85%, Cc1ccc2oc(C(=O)N(Cc3cccc(F)c3)C3CCS(=O)(=O)C3)c(C)c2c1 (stereo not given) -17.7%, COc1ccc(N2CCN(C(=O)c3cc(S(=O)(=O)N4CCCCCC4)cn3C)CC2)cc1 -11.3%, O=C(NCc1ccccc1Cl)C1CCC(CNS(=O)(=O)c2ccc(Cl)cc2)CC1 (stereo not given) -5.5%, COc1ccc(-c2cc(=S)ss2)cc1 29.5%, COc1cccc(NC(=O)N2CCC(n3c(C)nc4cccnc43)CC2)c1 -6.13%, COc1cccc(Cn2c(=O)n(-c3ccc(C)c(F)c3)c(=O)c3sc4ccccc4c32)c1 -10.9%, COc1ccc(CNC(=O)C2CCN(Cc3nc(-c4ccc(OC)c(OC)c4)oc3C)CC2)cc1 -5.23%, Cc1ccc(-c2cc(C(F)(F)F)n3nc(-c4ccc(Cl)cc4)cc3n2)cc1 -3.52% [at 11.5 µM, percent change from vehicle, -100% = no light], COc1cccc(OC)c1C(=O)Nc1nnc(C)s1 21%, O=C(COC(=O)C(Cc1c[nH]c2ccccc12)NC(=O)c1ccc(Br)cc1)c1ccc(Cl)cc1 (stereo not given) -1.52%, Cc1ccc(N(CC(C)C)S(=O)(=O)c2nnc(NC(=O)c3ccco3)s2)cc1 -41.2%, Cc1cc(C(C)(C)C)c(O)c(C(C)(C)C)c1 -5.5%, CCOC(=O)c1cc(-c2ccccc2)n(CC(=O)Nc2ccc(OC)cc2OC)c1C -14.7%, CCOc1ccc(NC(=O)C2CCN(S(=O)(=O)c3cc(-c4noc(C)n4)ccc3C)CC2)cc1 -12.7%, CSc1cccc(-c2nnc(NC(=O)c3ccc4c(c3)OCCO4)o2)c1 -2.97%, CC(C)CC(=O)NCc1nc2cccnc2n1Cc1ccccc1 -6.89%, CCOC(=O)c1nc(Nc2ccc(C(=O)OCC(C)C)cc2)c2ccccc2n1 -13.9%, O=C(CCc1cn(Cc2ccccc2F)c2ccccc12)NCc1ccc(Cl)cc1 -62.5%, COc1ccc(-c2ccc(NS(=O)(=O)c3cccc(Cl)c3)cc2)nn1 -23.5%, Cc1ccccc1CNC(=O)c1ccc(Cn2c(SCc3cccc(F)c3)nc3cccnc32)cc1 -25.2%, COc1ccc(Cn2ccc3nc(C)c(C(=O)N4CCN(c5ccccc5)CC4)cc3c2=O)cc1 -2.03%, O=C(c1cn(CCOc2ccccc2F)c2ccccc12)C1CCCCC1 -10.2%, COc1ccc(C(=O)c2oc3ccccc3c2NC(=O)c2ccc(F)cc2)cc1 2.99%, CCOC(=O)c1ccc(NC(=O)c2cn(-c3ccccc3)nc2-c2ccc(Br)cc2)cc1 -8.33%, COc1ccc(NC(=O)CSc2oc(-c3cccs3)nc2S(=O)(=O)c2ccc(Br)cc2)c(OC)c1 2.74%, CN/C(=C\[N+](=O)[O-])NCCSCc1ccc(CN(C)C)o1 -5.6%, Cc1cccc(Cn2cc(C(=O)c3ccccc3)c(=O)c3cc4c(cc32)OCO4)c1 -22.1%, Cc1ccc(Nc2sc(C(=O)c3ccccc3)c(N)c2C(=O)NC(C)C)cc1 7.19%, CCc1nonc1NC(=O)c1oc2cc(C)c(Cl)cc2c1C 8.17%, COc1ccccc1N1CCN(C(=O)c2sc3nc4n(c(=O)c3c2C)CCC4)CC1 -3.42%
